The list shows a part of the results. Each Rep nickase domain was tested in vitro on the same pool of single strands (1 h at 37 °C, 3 µM enzyme); the outer parts of the 90-letter strands are left off. Values are log2 of uncut reads against the no-enzyme pool; uncut sequences lie near 0, cut ones below; no hit call is given. Shares of all reads are compared; values above 0 arise when much of the pool is cut.
Key:
Experiment in all cases: uncleaved DNA left, log2 of reads against the no-enzyme library (log2 ratio); higher = less cleavage (more negative = more Rep cleavage of the k-mer); sequences stand for … in CTCGTCCG…ACCGGAGA
[1] = system: T1, Rep nickase domain of Muscovy duck circovirus
T1 sequence (protein, residues 1-111, tag omitted): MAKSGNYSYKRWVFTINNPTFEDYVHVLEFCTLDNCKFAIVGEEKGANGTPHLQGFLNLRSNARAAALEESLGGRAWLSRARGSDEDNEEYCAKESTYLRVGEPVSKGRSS
Description: (§1)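 A pool of 90-nt single-stranded DNAs with seven random bases just before the constant AC of the nick site (name = the seven bases) was cut by 3 µM recombinant His6-SUMO-tagged Rep nickase domain (300 nM DNA, 50 mM HEPES pH 8.0, 50 mM NaCl, 1 mM MnCl2, 1 h, 37 °C, three replicates). Uncut DNA was amplified and sequenced.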

[2] = system: T2, Rep nickase domain of banana bunchy top virus
T2 sequence (protein, residues 1-94, tag omitted): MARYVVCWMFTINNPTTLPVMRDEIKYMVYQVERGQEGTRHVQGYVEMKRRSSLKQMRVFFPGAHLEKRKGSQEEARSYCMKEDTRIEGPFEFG
Description: as §1

[3] = system: T3, Rep nickase domain of cabbage leaf curl virus
T3 sequence (protein, residues 1-116, tag omitted): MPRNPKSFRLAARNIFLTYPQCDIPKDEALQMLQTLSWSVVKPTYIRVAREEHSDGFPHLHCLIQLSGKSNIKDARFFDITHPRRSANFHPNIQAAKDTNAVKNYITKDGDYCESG
Description: as §1

[4] = system: T4, Rep nickase domain of chickpea chlorotic dwarf virus
T4 sequence (protein, residues 1-124, tag omitted): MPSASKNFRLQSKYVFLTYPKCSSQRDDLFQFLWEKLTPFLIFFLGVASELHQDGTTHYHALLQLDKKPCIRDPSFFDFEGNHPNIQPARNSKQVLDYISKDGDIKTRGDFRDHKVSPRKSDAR
Description: as §1

[5] = system: T5, Rep nickase domain of faba bean necrotic yellows virus
T5 sequence (protein, residues 1-98, tag omitted): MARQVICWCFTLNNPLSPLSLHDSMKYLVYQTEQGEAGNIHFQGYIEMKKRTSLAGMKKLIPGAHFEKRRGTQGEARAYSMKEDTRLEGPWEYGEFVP
Description: as §1

[6] = system: T6, Rep nickase domain of maize striate mosaic virus
T6 sequence (protein, residues 1-117, tag omitted): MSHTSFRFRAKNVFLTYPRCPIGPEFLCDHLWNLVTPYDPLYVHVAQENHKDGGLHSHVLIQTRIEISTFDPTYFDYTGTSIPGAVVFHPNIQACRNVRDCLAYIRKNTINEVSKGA
Description: as §1

[7] = system: T7, Rep nickase domain of porcine circovirus 2
T7 sequence (protein, residues 2-116, tag omitted): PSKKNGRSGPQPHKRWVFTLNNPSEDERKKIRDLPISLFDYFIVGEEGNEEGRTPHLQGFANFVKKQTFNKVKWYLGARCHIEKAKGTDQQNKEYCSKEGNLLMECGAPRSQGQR
Description: as §1

[8] = system: T8, Rep nickase domain of tomato golden mosaic virus
T8 sequence (protein, residues 1-124, tag omitted): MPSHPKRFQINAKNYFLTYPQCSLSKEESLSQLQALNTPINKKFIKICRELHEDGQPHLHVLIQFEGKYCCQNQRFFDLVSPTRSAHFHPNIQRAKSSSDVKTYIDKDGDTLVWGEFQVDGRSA
Description: as §1

[9] = system: T9, Rep nickase domain of tomato yellow leaf curl virus
T9 sequence (protein, residues 1-136, tag omitted): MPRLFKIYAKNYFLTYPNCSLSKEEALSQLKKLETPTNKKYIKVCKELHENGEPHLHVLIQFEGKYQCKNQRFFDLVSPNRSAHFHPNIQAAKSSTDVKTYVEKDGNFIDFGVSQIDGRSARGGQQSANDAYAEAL
Description: as §1

[10] = system: T10, Rep nickase domain of wheat dwarf virus
T10 sequence (protein, residues 1-137, tag omitted): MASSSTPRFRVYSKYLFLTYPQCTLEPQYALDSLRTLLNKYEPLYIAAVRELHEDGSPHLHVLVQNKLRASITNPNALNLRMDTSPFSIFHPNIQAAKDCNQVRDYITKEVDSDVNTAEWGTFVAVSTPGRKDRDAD
Description: as §1

Sequence	uncleaved DNA left (log2) [1]	uncleaved DNA left (log2) [2]	uncleaved DNA left (log2) [3]	uncleaved DNA left (log2) [4]	uncleaved DNA left (log2) [5]	uncleaved DNA left (log2) [6]	uncleaved DNA left (log2) [7]	uncleaved DNA left (log2) [8]	uncleaved DNA left (log2) [9]	uncleaved DNA left (log2) [10]
GATGTGC	0.11	0.0478	-0.156	-0.186	0.147	-0.793	0.106	0.0122	0.127	0.0448
GGCAACG	0.0339	-0.0416	-0.156	-0.0919	0.0154	-0.217	0.113	0.0903	-0.0554	-0.0667
TAATGCT	-4.06	-1.64	-4.71	-3	-0.0836	-4.08	-4.29	-4.63	-3.47	-4.71
GATGTCT	0.0232	-0.164	0.111	-1.03	0.0268	0.412	-0.226	0.00522	0.0857	0.0181
CCTTATC	0.155	0.327	0.931	1.31	0.265	1.48	0.125	0.205	0.254	0.225
AAGGGAG	-0.013	0.052	-0.113	0.342	0.0993	-0.569	0.253	0.221	0.0346	0.0992
CGTGAAT	0.0653	0.0784	0.169	0.359	0.0639	0.825	-0.24	0.0851	0.059	0.0448
GAGTGTT	-2.35	-2.65	-1.21	-1.87	-2.35	0.64	-3.34	-0.612	0.113	-0.698
AGCTTTG	-0.0415	0.00283	-0.0523	0.604	-0.00172	0.961	0.107	-0.122	0.0137	0.0267
TACAACT	-0.0269	-0.155	-2.24	-3.21	0.00488	-1.07	-3.15	-0.129	-0.0137	-0.186
CCGGCGA	0.0818	-0.255	-0.639	-0.211	-0.0965	-0.558	0.0615	-0.11	-0.0923	-0.33
TCGAATC	0.07	-0.129	0.136	0.0671	0.0889	-0.356	-0.0203	-0.117	-0.0152	-0.0143
GGCGCCT	-0.112	-0.0661	0.0605	0.471	-0.163	1.43	0.0184	-0.13	-0.151	-0.0094
GAGCTCC	0.129	0.139	0.219	0.445	0.168	1.09	0.0374	0.0752	0.12	0.182
GCCGCCA	-0.139	-0.0116	0.0331	-0.113	-0.081	-0.0117	0.0714	0.112	-0.0697	-0.113
CGACTCT	0.0756	-0.111	-0.0123	-0.181	0.0872	0.79	-0.151	-0.196	0.132	0.0221
ACACTAA	-0.0404	-0.0281	-0.206	-0.602	0.146	-0.791	0.145	0.0555	-0.151	-0.115
CCCGTTC	-0.0161	-0.188	0.193	0.0583	-0.0984	0.164	-0.204	-0.205	-0.168	-0.223
AGAAAAG	0.0458	-0.0593	-0.653	-0.404	0.0641	-1.1	0.0646	0.0181	0.0488	-0.0055
GTAAATA	0.0423	0.0433	0.219	0.608	0.00152	1.53	0.086	0.0741	0.109	0.113
GCTTCCT	-0.125	-0.0154	0.0765	-1.07	-0.0408	0.224	-0.583	-0.124	-0.0372	0.0771
TGGGAAC	0.00848	0.101	0.801	1.91	0.00299	2.17	0.132	0.00921	0.0491	0.152
TGACCGT	-0.0924	-0.0942	0.0604	0.18	-0.147	0.458	0.0809	-0.0275	-0.12	0.108
TCAGTGT	0.0955	-0.0434	-0.0717	-0.103	-0.0626	-0.187	0.11	-0.0425	-0.0313	-0.0809
TTTGGAG	0.145	0.0353	-0.64	-0.362	0.107	-1.15	0.179	0.0792	0.0248	-0.101
CCCCACT	-0.201	-0.215	-0.333	-2.48	-0.128	-0.668	-0.355	-0.0943	-0.293	-0.0917
GCAGTGA	0.0117	0.0607	-0.15	-0.0577	0.0612	-0.519	0.103	0.148	-0.00978	-0.014
ACGAAAA	0.0321	0.148	-0.0319	0.17	0.0994	-0.552	0.196	0.0724	-0.0719	0.00439
CGTTTGC	-0.0435	-0.0433	-0.658	-0.482	-0.0694	-1.11	0.156	-0.0673	0.0509	-0.0405
TTCCTTG	0.114	0.0562	-0.428	-1.2	-0.013	-1.02	0.107	-0.0288	0.103	-0.00109
